Results from PMC10154249, “Unique progerin C-terminal peptide ameliorates Hutchinson–Gilford progeria syndrome phenotype by rescuing BUBR1” (Nature Aging, 2023).
No constants are given. Whether binding was seen depends on the method and setting. In cells and extracts the contact can be indirect. Some results given as binding are weak or reduced against the parent protein; the word gives no strength.

Amino acid sequences for entries named in this document (tags omitted).
UniProt O60566: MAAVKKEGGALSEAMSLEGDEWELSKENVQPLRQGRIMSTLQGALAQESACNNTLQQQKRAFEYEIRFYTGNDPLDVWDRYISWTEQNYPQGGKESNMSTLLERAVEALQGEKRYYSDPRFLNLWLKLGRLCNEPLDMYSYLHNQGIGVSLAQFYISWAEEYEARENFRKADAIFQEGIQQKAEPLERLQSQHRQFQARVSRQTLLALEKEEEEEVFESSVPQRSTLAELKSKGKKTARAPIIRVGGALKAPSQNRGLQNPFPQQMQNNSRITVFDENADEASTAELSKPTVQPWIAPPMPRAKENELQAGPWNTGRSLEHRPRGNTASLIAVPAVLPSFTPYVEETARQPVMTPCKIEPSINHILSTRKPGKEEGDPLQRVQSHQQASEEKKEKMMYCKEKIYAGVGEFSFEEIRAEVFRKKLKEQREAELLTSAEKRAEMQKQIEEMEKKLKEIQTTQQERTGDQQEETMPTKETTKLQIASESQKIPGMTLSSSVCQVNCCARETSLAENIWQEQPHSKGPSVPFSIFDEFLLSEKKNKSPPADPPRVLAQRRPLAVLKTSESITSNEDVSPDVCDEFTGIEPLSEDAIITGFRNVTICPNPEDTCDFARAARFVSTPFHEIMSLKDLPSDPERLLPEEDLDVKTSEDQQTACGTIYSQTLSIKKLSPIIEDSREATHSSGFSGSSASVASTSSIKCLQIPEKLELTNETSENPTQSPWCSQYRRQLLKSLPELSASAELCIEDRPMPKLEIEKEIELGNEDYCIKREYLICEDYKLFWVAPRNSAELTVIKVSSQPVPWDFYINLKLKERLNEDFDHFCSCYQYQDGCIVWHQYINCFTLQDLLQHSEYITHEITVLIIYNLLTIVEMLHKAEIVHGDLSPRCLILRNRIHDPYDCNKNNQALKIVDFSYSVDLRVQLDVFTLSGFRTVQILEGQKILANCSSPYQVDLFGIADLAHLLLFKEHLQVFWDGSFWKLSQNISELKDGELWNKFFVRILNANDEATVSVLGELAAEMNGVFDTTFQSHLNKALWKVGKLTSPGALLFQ

Target: BUBR1 (endogenous, HEK-293T) (human (endogenous in HEK-293T)) (UniProt O60566)
Assay: co-IP; HEK-293T cells cotransfected with truncated mutants of progerin-C and HA-progerin; progerin IP with the anti-HA antibody

**Q.** Which binding does the source give for YNLRSRTVLCGTCGQPADKASASGSGAQSPQNCSIM (domain or fragment) [progerin-C36 (aa residues 579–614)] here?
**A.** binds
